Among the data in the RNAGym collection of RNA variant scans (doi:10.7554/elife.90254) are self-cleavage values, retold here.

First the molecules themselves.
B1: LINE1-mini (parent)
chain: GGCAGAGCUCAACACAGCGUGGCAAAGUGGCUGUGGCUAGACUGCC

The source gives no read counts; variants with many changes may rest on few reads.

This data set covers variants of B1. The experiment in a line: self-cleavage, relative activity (ratio to wild type); higher = more cleavage; in vitro, sequencing; the parent is a self-cleaving ribozyme.
Take G7A G19C G22U U38A: the self-cleavage worked out at 0.03.
With G7C C15U U43C, the self-cleavage stood at 0.08.
In the case of G7A C8A A14U C15A C42G G44U, the self-cleavage came out at 0.36.
As for G7C C8A U28C C46G, the self-cleavage came out at 0.08.
As for G7A G29U U32A G33C, the self-cleavage was determined as 0.14.
On to G7C C13A A14G U34A G36U G40U, for which the self-cleavage worked out at 0.04.
Under G7A G44A C45G stands 0.17; under G7A U20C C31U, 0.02; under G7C C23G C45A, 0.22.
Take G7C A11U A12C G36U G40U: the self-cleavage came out at 0.01.
Consider G7A C15G G22A G35A C37A U38A U43C, for which the self-cleavage came to 0.2.
As for G7C C10U A14G G22A G33U, the self-cleavage was 0.1.
With G7A U34C C45G, the self-cleavage was found to be 0.42.
Under G7C C10A A11C C23G stands 0.02; under G7A C8U G19U C23A, 0.08.
For G7A U9G C18U G19U G33A G35U C46G the value was 0.01; for G7C C10U U28A, 0; for G7A C8A U9A G19C G22U, 0.08.
Under G7A C13A G30C stands 0.1; under G7C A16C A39G G44C, 0.01.
As for G7A C15U G22C G30U A39G, the self-cleavage was found to be 0.1.
On to A6U G22A G36U, for which the self-cleavage worked out at 0.05.
With G7A G22C C42U C46U, the self-cleavage is 0.47.
Take G7C A11U A12G G29U C31U G33U: the self-cleavage came out at 0.01.
On to G7A A11G G17C C31U, for which the self-cleavage worked out at 0.03.
Consider G7A G36C C45U, for which the self-cleavage came out at 0.46.
Under G7A U9C A12C A25U A26G G29A stands 0.01.
For A6U G7U U9C G40C C45A the value was 0.01; for G7A A11U C45A, 0.02; for G7A A11G U32C, 0.01.
For G7A U28C C37G U38G the value was 0.
On to G7A C8A C23G A24U A25U A26U, for which the self-cleavage worked out at 0.04.
Turning to G7C C13A A26G G29A G30C C31U, the self-cleavage is 0.03.
For A6U G17A U28A U43G the value was 0.44.
Under G7C C8A G44C stands 0.16; under G7A U28C G29C G30U U34G, 0.22.
For G7C C15G A26C G33U the value was 0.06; for G7C C18U G44U, 0.1; for G7A C37U U38G, 0.04.
As to G7A C8U C10G G22U U28A U34G, the self-cleavage is 0.03.
For G7A A12C G21U U32A C37G A39U the value was 0; for G7A C13A C31U C45A, 0.02; for G7A C13U G33A, 0.12.
On to G7C A14C G22U A26U G27C, for which the self-cleavage is 1.2.
Regarding G7C C23A G36U, the self-cleavage came out at 0.02.
With A6U G17C U20A U28A C37A, the self-cleavage is 0.06.
G7C A11U C15U A25G G29C G33C: the self-cleavage was found to be 0.01.
For A6U G7U C18G C31G C46A the value was 0.1.
For the variant A6U U20G G33U, the self-cleavage came out at 0.01.
Regarding A6U U20G G40U, the self-cleavage amounted to 0.2.
For G7C A11U C23G A26C the value was 0.01; for G7C C10G G36A, 0.01; for G7A C8G G19A G30U, 0.07.
Under A6U G21A G29U stands 1.29.
For A6U U9A G17A U34A the value was 0.15.
With A6U G21U C23U, the self-cleavage worked out at 0.61.
Under G7A G35A U43A stands 0.07; under G7C A11U G30U, 0.02; under A6U G17A G36U, 0.09.
Under G7A C18A G27A stands 0.07; under G7A U9C C18A C37U, 0.02.
As for G7C A11C A12G A14G A41U, the self-cleavage came to 0.02.
G7A G19A A25C G44U: the self-cleavage is 0.08.
Under G7C A11C C15A A39G stands 0.01; under G7C A16G G29U U43A, 0.04.
For G7A G17U A24U G27A G35U the value was 0.14; for G7A C18U C37A, 0.6.
Under G7A G21C U34G stands 0.04; under G7C A14U G21C A39U, 0.07; under A6U G17A A26C G30A U38A C46G, 0.14.
For G7A G17U G21U C31G, the self-cleavage worked out at 0.06.
Turning to G7A C10A G21U A26G, the self-cleavage amounted to 0.01.
On to A6U G35U C42U, for which the self-cleavage is 0.38.
For G7A A14C C23A the value was 0.15.
For G7A U20A A24C U32A, the self-cleavage stood at 0.
Turning to G7A G35A G40A G44U, the self-cleavage amounted to 0.64.
Take G7A A11U G19A A24C: the self-cleavage worked out at 0.02.
For G7C A26C A41U, the self-cleavage was determined as 0.12.
As to A6U G35A G36A, the self-cleavage turned out to be 0.08.
In the case of G7A A26C G29A G33U A41U, the self-cleavage was 0.02.
With G7A C10A G19U G27A C37A, the self-cleavage is 0.02.
Under G7C A14C C37A C45A stands 0.09.
Take G7C A11C C18U U20G G33A A41C: the self-cleavage was 0.
For G7A G19C C31U A41U the value was 0.05; for G7C A11C A39G, 0.01.
Regarding G7A C10G C13G G17A, the self-cleavage was found to be 0.02.
For G7C C10A A41G the value was 0.01.
Under G7C C13G C31A stands 0.05.
Consider G7A A11U C13G G35A U38G, for which the self-cleavage came to 0.01.
Take G7A C13G A25U: the self-cleavage came to 0.23.
Under G7C A14C G17A A25U G44U stands 0.01; under G7C C13U C18U U20A G29U, 0.02.
For G7A C8A G29U the value was 0.32; for G7A U20A C23G U34G, 0.04; for G7C C8U C10A G17A, 0.01.
As to G7A U9C G27U G29C C46A, the self-cleavage amounted to 0.
Under G7A C31U G33U stands 0.14; under G7A C15U A16C A25U, 0.11.
With G7A U32A C45A, the self-cleavage came out at 0.05.
Under G7A A12C C13G G27C G30U G36C C45U stands 0.01; under G7A A11G A14C C42A, 0.01; under G7C C10G C18U, 0.03.
For G7A C10G C13A G44U the value was 0.02; for G7A U38C C42G G44U, 0.04; for G7A C13A A14U U43A C45U, 0.19.
Regarding G7A G21U C31U, the self-cleavage came out at 0.13.
For G7C A11G A16C G36A G40A the value was 0.01.
With G7A C31G G33A U34A, the self-cleavage worked out at 0.06.
For G7A C8A U34C G35C G36U the value was 0.07; for G7A U9G U34G, 0.03; for G7A C15U G36U C46A, 0.09.
For G7C A26G G35C G44C C45U the value was 0.01; for G7A C10U G35A C42A G44A, 0.05.
Under G7C C18A C31U stands 0.01; under G7A U9C G35C, 0.04; under G7A A14C U20A, 0.14.
Consider G7A A11U A14U C18U G27C G29U G40U, for which the self-cleavage was 0.01.
With G7C A11G U20C G44C, the self-cleavage worked out at 0.01.
For G7A A25U C31U the value was 0.59; for G7C C13A U43A, 0.04.
Under G7A C8A C13U C46A stands 0.81; under A6U U9G G27U U32A C46A, 0.03; under G7A U28A G35U, 0.36.
Under G7C C13A C45U stands 0.13; under G7A C8A G27A U28G G33U, 0.07.
For A6U G36A U38A G40C, the self-cleavage was 0.05.
With G7A U20G G27U A41G, the self-cleavage is 0.07.
For G7C C8U C10A C37G the value was 0.02.
For G7C C15U G33A the value was 0.19; for G7C C8A G17U U43C, 0.14.
Take G7C A25U G30U: the self-cleavage amounted to 0.05.
Turning to G7C A11G G17C G22C A24G A25C C37U G44C, the self-cleavage was found to be 0.
For G7C C13G C15A G17A C23U C31A the value was 0.18; for G7A A16U G27A C46U, 0.08; for G7C A12U G30U U34G G40U, 0.01.
Under G7C C18A C23U C37U stands 0.05; under G7A U34G G44A, 0.02.
Under G7A U32C U43C stands 0.12.
For G7C A14U G33U C37A C45U, the self-cleavage worked out at 0.06.
Under G7A C23A A24G A26G G30A stands 0.13.
Regarding G7A G22A A24U G36A, the self-cleavage turned out to be 0.41.
For A6U G7U A16U A24U U34G the value was 0.07; for A6U G17U G21A U34A G35U G40C, 0.02.
Under G7C A16U G17C stands 0.05.
Regarding G7C A12G G17A U28C U32C U38A, the self-cleavage amounted to 0.26.
Under A6U G27A G29U stands 0.39.
On to A6U G30U G36A, for which the self-cleavage is 0.12.
Under G7C A11G A25U U38C stands 0.01; under G7A C8A U20A, 0.19; under A6U G22A G33A U38C C46A, 0.32.
Under A6U G17C A25U A41C C45U stands 0.1; under G7A G19U G33U, 0.18.
Under G7A U20A U38C stands 0.05; under G7C C8A A12C U32C A41U C45G, 0.16; under A6U G27A C37A, 0.06.
As for G7C A11U C37U C42U C46A, the self-cleavage turned out to be 0.02.
Turning to G7A C18A A26G, the self-cleavage is 0.02.
Under A6U G40C C46U stands 0.14; under G7A A11U C31G G40U C45A, 0.03; under G7A U9C C10U A24C, 0.03.
Under G7A C10U A11G stands 0.02; under G7A C13G G40C, 0.62.
Regarding G7A U9G C15U G17A, the self-cleavage was found to be 0.02.
G7C C13U G17U G19U C31A: the self-cleavage turned out to be 0.1.
For G7C C10U C15G U20C C23G G36U C37U the value was 0.01; for G7A A12C C13A C31A, 0.07; for G7A C18U U34G U38C, 0.03.
